According to PubChem BioAssay AID445 (National Center for Advancing Translational Sciences (NCATS), 2006):
Hit rate of the full screen: of about 110,000 compounds, about 40 (0.04%) were called active. The shares of active, inactive and inconclusive entries below differ from those in the screen. Calls follow the shape of the dose curve; as a rule, active = well fitted curve in the direction sought with a large enough effect in the signal ratio (not every such curve was filed as active); inconclusive = small, poorly fitted or top-dose-only effect, or a change in a side signal; inactive = flat fitted curve, though single readings scatter; the % refers to the signal ratio. Potencies of inconclusive entries are doubtful fits and often do not repeat.

assay: IkB Signaling; conditions: ABC-DLBCL IkBa-CBG/CBR dual luciferase ratio (green luciferase fused to IkBa over red control in OCI-Ly3 lymphoma cells), 4 h; IkBa stabilization activation: at 57.1 µM (top of the series), scaled: untreated 0%, proteasome inhibitor 100% unless noted;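 as to IkBa stabilization activation: 0% = basal untreated cells and 100% = reference inhibitor full response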
How it was run: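 Luminescence ratio of IκBα-fused green versus native red beetle luciferase in OCI-Ly3 cells, 4 h post-doxycycline with compound; red signal alone, scaled from basal (0%) to zero light (-100%), flagged nonspecific or cytotoxic effects.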
Potency is read from the fitted curve at half-maximal effect.

SMILES | Potency | IkBa stabilization activation
COc1ccccc1-n1c(CNC(=O)c2ccco2)nnc1SCC(=O)Nc1ccc(F)cc1 | inconclusive: 5.01 µM [signal inhibitor, partial curve] | –
O=C(Nc1ccc(-c2noc(CCc3ccccc3)n2)cc1)c1ccco1 | – | inconclusive: 2.36% [signal inhibitor]
CN(Cc1ccccc1)S(=O)(=O)c1ccc(C(=O)Nc2nnc(C3CC3)o2)cc1 | – | inconclusive: 8.5% [signal inhibitor]
COCCn1c(=O)c(-c2cc(F)cc(F)c2)nc2cnc(N3CCN(C)CC3)nc21 | – | inactive: -0.974% [at 11.4 µM, scaled: untreated 0%, proteasome inhibitor 100%]
C=C(C)COc1ccc(-c2nc(N)ncc2-c2ccc(OC)cc2)c(O)c1 | – | inconclusive: -5.13% [signal inhibitor]
COCCSc1nnc(NS(=O)(=O)Cc2ccccc2)s1 | – | inconclusive: 13.5% [signal inhibitor]
Nc1c(C(=O)NCCN2CCOCC2)c2nc3ccccc3nc2n1-c1ccccc1 | – | inconclusive: 11.2% [signal inhibitor]
Cc1cc(NS(=O)(=O)c2ccc3oc(=O)c4ncn(C)c4c3c2)ccc1Br | – | inconclusive: -4.71% [signal inhibitor]
COc1ccc(NC(=O)N2CCN(S(=O)(=O)c3ccc4c(ccn4C)c3)CC2)c(OC)c1 | – | inactive: 2.12%
Cc1nc2ccn(Cc3ccco3)c(=O)c2cc1C(=O)N1CCN(c2ccc(F)cc2)CC1 | – | inconclusive: -0.724% [signal inhibitor]
COc1cccc(CNC(=O)C(C)n2c(=O)cc(-c3ccccc3)c3c(C)nn(C)c32)c1 (stereo unspecified) | – | inconclusive: -0.253% [signal inhibitor]
O=C(Cn1[nH]c(=O)c2ccccc2c1=O)N1CC=C(c2ccccc2)CC1 | – | inconclusive: 3.72% [signal inhibitor]
O=C(O)c1cc(-c2ccc3cc4c(cc3c2)OCO4)nc2ccccc12 | – | inactive: 0.0948% [at 11.4 µM, scaled: untreated 0%, proteasome inhibitor 100%]
COc1ccccc1N1CCN(C(=O)c2cnn(-c3ccc(F)cc3F)c2C2CCNCC2)CC1 | – | inactive: -2.22%
COc1cccc(C(=O)Nc2ccc3oc(-c4cccc5c(Br)cccc45)nc3c2)c1 | – | inconclusive: 1.62% [signal inhibitor]
Cc1ccc(Nc2nnc(-c3ccc(C)c(S(N)(=O)=O)c3)c3ccccc23)cc1 | – | inconclusive: 7.5% [signal inhibitor]
CCCOC(=O)c1ccc(-c2c(C)noc2-c2ccc(OC)cc2O)o1 | – | inconclusive: 0.727% [signal inhibitor]
CCc1ccccc1N(C)C(=O)c1ccc2c(=O)n3c(nc2c1)CCCCC3 | – | inconclusive: 2.49% [signal inhibitor]
COc1ccc(N2CCN(C(=O)CCc3c(C)nc4cc(-c5ccc(OC)cc5OC)nn4c3C)CC2)cc1 | inconclusive: 7.94 µM [signal inhibitor] | –
COc1ccc(-n2c(=O)c(-c3cccs3)nc3cnc(Oc4ccccc4)nc32)cc1 | – | inactive: -0.471% [at 11.4 µM, scaled: untreated 0%, proteasome inhibitor 100%]
CCOC(=O)c1c(NC(=O)c2ccccc2OCC)sc2c1CCC(CC)C2 (stereo unspecified) | – | inactive: 3.09%
COc1ccccc1N1CCN(C(=O)c2cc3c(=O)n(C)c4ccccc4c3n2C)CC1 | – | inactive: -1.12%

SMILES | Potency | IkBa stabilization activation
CN(C)S(=O)(=O)c1ccc(C(=O)NCCSc2c(-c3ccc(Cl)cc3)[nH]c3ccccc23)cc1 | – | inconclusive: -0.158% [signal inhibitor]
c1ccc(N2CCN(c3nnc(Cc4cccnc4)c4ccccc34)CC2)nc1 | – | inconclusive: 1.81% [signal inhibitor]
O=C(CSc1nc(-c2ccc(F)cc2)[nH]c1-c1ccc(F)cc1)Nc1ccc2c(c1)OCCO2 | – | inconclusive: -6.24% [signal inhibitor]
Cc1ccc(C)c(N2CCN(C(=O)c3cnn(-c4ccccc4Cl)c3C3CCN(C(=O)OC(C)(C)C)CC3)CC2)c1 | – | inconclusive: 3.87% [signal inhibitor]
CCOc1ccc(CC(=O)NCC(c2cccs2)S(=O)(=O)c2ccc(F)c(C)c2)cc1 (stereo unspecified) | – | inconclusive: 0.361% [signal inhibitor]
CCN(CC)c1nc(N)c2c(N)nc3c(c2c1C#N)CC(c1ccccc1)O3 (stereo unspecified) | – | inconclusive: 5.3% [signal inhibitor]
Cc1ccc(NC(=O)C2CC(=O)N(c3ccc(OC(C)C)cc3)C2)cc1 (stereo unspecified) | – | inactive: 3.09%
CCOC(=O)c1c(C)c(-c2ccccc2)n(CC(=O)NC(CC)Cc2ccccc2)c1C (stereo unspecified) | – | inactive: -0.824%
O=C(Nc1ncc(Cc2ccccc2)s1)c1cccs1 | inconclusive: 25.1 µM [signal inhibitor, partial curve] | –
Cc1cccc(NC(=O)Cn2c(=O)c3cccn3c3ccccc32)c1C | – | inconclusive: -0.187% [signal inhibitor]
Cc1nnc(NC(=O)Nc2cccc(Cl)c2)s1 | – | inactive: 2.83%
CN(C)c1nc(N(C)C)nc(N(C)C)n1 | – | inactive
COc1cc(NS(=O)(=O)c2cc(Br)cc3c2N(C(=O)C2CC2)CC3)cc(OC)c1 | – | inactive: 1.26%
CC1CCN(C(=O)Cn2c(SCC(=O)Nc3ccc(F)cc3)nc3ccccc32)CC1 | – | inconclusive: 2.6% [signal inhibitor]
COc1ccc(OC)c(CNC(=O)CSc2c3c(nc4cc(Cl)ccc24)CCCC3)c1 | – | inconclusive: 10.6% [signal inhibitor]
CCc1nn(CC(=O)NCCOC)c(=O)c2cc3cc(F)ccc3n12 | – | inactive: -0.819%
O=C(Nc1cccc(C(F)(F)F)c1)Nc1ccc2snnc2c1 | – | inactive: -1.18%
Cc1cc(S(=O)(=O)Nc2ccc(O)c(Sc3nc4ccccc4s3)c2)ccc1Cl | – | inconclusive: -5.94% [signal inhibitor]
Brc1ccc(-c2nc(-c3ccncc3)no2)o1 | – | inactive: -1.01%
Cc1ccc(CCNC(=O)CN(c2ccc(C(C)C)cc2)S(=O)(=O)c2c(C)nn(C)c2C)cc1 | – | inconclusive: 1.89% [signal inhibitor]
Nc1ccn([C@@H]2O[C@@H](CO)[C@@H](O)[C@H]2O)c(=O)n1 | – | inactive: -3.26%
COc1ccc(OC)c([C@H]2Nc3ccccc3NC3=C2C(=O)CC(C)(C)C3)c1Br | – | inactive: -0.098% [at 11.4 µM, scaled: untreated 0%, proteasome inhibitor 100%]

SMILES | Potency | IkBa stabilization activation
c1ccc2c(c1)nc(Nc1ccc3c(c1)OCO3)c1nnnn12 | – | inconclusive: 5.09% [signal inhibitor]
c1cc2c3c(cccc3c1)C(N1CCCCC1)=N2 | – | inconclusive: 9.2% [signal inhibitor]
COc1ccc(CCN(Cc2cc3cc(C)ccc3[nH]c2=O)C(=O)N2CCCC2)cc1OC | – | inactive: -0.894%
CSc1nnc2n(-c3cccc(C)c3)c(=O)c3c4c(sc3n12)CCCC4 | – | inconclusive: -6.03% [signal inhibitor]
COc1ccccc1N1CCN(C(=O)c2ccc(Nc3nc4ccccc4n4nnnc34)cc2)CC1 | inconclusive: 25.1 µM [signal inhibitor, partial curve] | –
CCn1c(=O)n(CC)c2cc(N3CCCC3)c(NC(=O)Nc3cc(C)cc(C)c3)cc21 | – | inconclusive: 8.4% [signal inhibitor]
Cc1c(NC(=O)c2ccc(COc3ccc4ccccc4c3)o2)c(=O)n(-c2ccccc2)n1C | – | inconclusive: 7.24% [signal inhibitor]
O=C(Nc1ccccc1F)c1oc2ccccc2c1NC(=O)c1c(F)cccc1F | – | inconclusive: 0.788% [signal inhibitor]
Cc1cccn2c(=O)cc(COc3cccc(NC(=O)c4cccc(Cl)c4)c3)nc12 | – | inconclusive: 4.95% [signal inhibitor]
CCn1c(CN2CCCCC2)nc2cc(NC(=O)c3cccc([N+](=O)[O-])c3)ccc21 | – | inconclusive: 3.66% [signal inhibitor]
Cc1ccc(CCNC(=O)CSCc2nc(-c3ccc(C)cc3)oc2C)cc1 | – | inconclusive: 1.86% [signal inhibitor]
COc1ccc(C2C(C(=O)N3CC(C)CC(C)C3)c3ccccc3C(=O)N2C)cc1 (stereo unspecified) | – | inactive: 0.255%
Cc1ccc(CNC(=O)c2nn(C)c3c2CSc2ccc(C)cc2-3)cc1 | – | inconclusive: 2.58% [signal inhibitor]
O=C(NCCc1ccco1)c1nn(Cc2ccccc2)c(=O)c2ccccc12 | – | inconclusive: 3.66% [signal inhibitor]
CC(C)c1ccc(NC(=O)Cn2c3ncccc3c(=O)n2-c2ccccc2)cc1 | – | inactive: -1.21%
CC1CCN(Cc2nc3c(c(=O)n(C)c(=O)n3C)n2Cc2c(F)cccc2Cl)CC1 | – | inactive: 0.0708%
CCN(Cc1ccccc1)C(=O)Cn1c(=O)n(-c2cccc(C)c2)c(=O)c2c1c1cc(OC)ccc1n2C | – | inconclusive: -1.49% [signal inhibitor]
CC(C)c1ccc(OCC(=O)NCC(c2ccc(Cl)cc2)N2CCOCC2)cc1 (stereo unspecified) | – | inconclusive: 1.05% [signal inhibitor]
Cc1nc2c(C(=O)NCCc3ccc(Cl)cc3)cnn2c(C)c1Cc1ccc(F)cc1 | – | inconclusive: -0.692% [signal inhibitor]
COc1ccc(N2C(N)=C(C#N)C(c3cc(CN4CCOCC4)cs3)C3=C2CCCC3=O)cc1 (stereo unspecified) | – | inconclusive: 5.68% [signal inhibitor]
O=C(O)CSc1ccc([N+](=O)[O-])cc1[N+](=O)[O-] | – | inactive: 0.688% [at 11.4 µM, scaled: untreated 0%, proteasome inhibitor 100%]
CCn1c(Sc2ccc(N)cc2Cl)nc2ccccc21 | – | inconclusive: 5.17% [signal inhibitor]
